PubChem BioAssay (NCI)
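Results reflect a 48-hour exposure of cells in 96-well plates to compound at five concentrations. Here, GI50 denotes the concentration required for 50% inhibition of growth. Definition used: TGI = concentration required for complete inhibition of growth.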

Tested on: NCI-H322M lung
Experiment: NCI-60 cell line screen, 48 h

Work on `CN(C)c1nc(NCCNS(=O)(=O)c2ccc(C(=O)/C=C/c3ccc(C(F)(F)F)cc3)cc2)nc(Nc2ccc(F)cc2)n1` yielded a GI50 of 11.6 µM and a TGI of 24.3 µM.
